In PubChem BioAssay AID588453 (National Center for Advancing Translational Sciences (NCATS), 2011):
In all, about 390,000 compounds went through this assay and about 4,000 (1%) were called active. Inconclusive results, whose numbers are uncertain, are shown with a selection of clear calls. Calls follow the shape of the dose curve; as a rule, active = well fitted inhibition curve with a large enough effect; inconclusive = small, poorly fitted or top-dose-only effect; inactive = no such curve, though single readings can be large or run the other way. Where the call is inconclusive, the potency comes from a doubtful curve fit.

Each molecule was assayed against Thioredoxin reductase 1, cytoplasmic (Rattus norvegicus) (UniProt O89049) (assay: qHTS Assay for Inhibitors of Mammalian Selenoprotein Thioredoxin Reductase 1 (TrxR1): qHTS). Conditions: recombinant rTrxR1, NADPH fluorescence consumption, selenite substrate; series mostly up to 114 µM; activity change, negative = inhibition: at the top concentration.
Sequence of UniProt O89049 (O89049 whole entry, looked up): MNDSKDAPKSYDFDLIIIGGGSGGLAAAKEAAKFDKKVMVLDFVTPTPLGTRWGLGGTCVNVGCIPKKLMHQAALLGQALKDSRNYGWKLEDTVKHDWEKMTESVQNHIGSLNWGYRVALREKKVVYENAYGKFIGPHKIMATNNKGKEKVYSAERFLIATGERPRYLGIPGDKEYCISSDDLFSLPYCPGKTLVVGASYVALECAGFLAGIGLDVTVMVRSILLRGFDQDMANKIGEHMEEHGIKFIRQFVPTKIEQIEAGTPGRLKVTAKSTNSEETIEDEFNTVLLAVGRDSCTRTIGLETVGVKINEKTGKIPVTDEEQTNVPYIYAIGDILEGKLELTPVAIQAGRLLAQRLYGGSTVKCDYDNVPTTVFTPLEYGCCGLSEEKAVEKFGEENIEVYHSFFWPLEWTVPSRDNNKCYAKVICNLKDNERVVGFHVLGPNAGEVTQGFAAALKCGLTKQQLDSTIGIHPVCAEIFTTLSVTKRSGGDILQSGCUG
In short: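 Rat TrxR1 (90 nM in the dispensed reagent) was pre-reduced with 400 uM NADPH for 5 min at room temperature, then incubated with compound for 15 min. After 400 uM selenite was added, NADPH fluorescence (Ex 340/Em 450 nm) was followed for 8 min.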
% is scaled to controls: 0 for no effect and ±100 for the full control effect; potency is read from the fitted curve at half-maximal effect; tags tell the direction and shape of the fitted curve.
Also: nearly all actives have a fitted effect of over 65% in size.

| SMILES | Potency | activity change, negative = inhibition |
| --- | --- | --- |
| O=C(Nc1cc([N+](=O)[O-])ccc1C(=O)NCCN1CCOCC1)c1ccccc1 | inconclusive: 89.1 µM [inhibitor, partial curve, poor fit] | – |
| O=[N+]([O-])c1ccc(N2CCN(Cc3ccc([N+](=O)[O-])o3)CC2)cc1 | inconclusive: 12.6 µM [inhibitor, full curve] | – |
| COc1cc(OC)c(C(=O)/C=C/c2ccccc2)c(O)c1O | inconclusive: 89.1 µM [inhibitor, single point] | – |
| O=C(O)CCC(=O)N1CCC[C@H]1C(=O)O | – | inactive: 17.6% |
| COc1ccc(CNC(=O)c2oc3c(c2C)-c2nn(Cc4ccc(Cl)cc4)cc2CC3)cc1 | – | inactive: 24.7% |
| Cn1nnnc1SCC(=O)NCC(=O)c1ccccc1 | inconclusive: 50.1 µM [inhibitor, partial curve, poor fit] | – |
| CCOc1ccc(C(=O)Nc2cnn(Cc3ccc(Cl)c(Cl)c3)c2)cc1 | – | inactive: -0.62% |
| O=C(Nc1nc2ccccc2s1)c1cnccn1 | inconclusive: 70.8 µM [inhibitor, partial curve] | – |
| CCc1ccccc1N1CC23C=CC(O2)C(C(=O)O)C3C1=O (stereo unspecified) | – | inactive: 8.78% [at 57.1 µM] |
| Cc1nc2scc(C)n2c(=O)c1S(=O)(=O)NCCc1ccccc1 | inactive | – |
| Cc1noc(/C=C/c2ccco2)c1S(=O)(=O)N1CCC(C(=O)NC(C)c2ccccc2)CC1 (stereo unspecified) | inconclusive: 14.1 µM [inhibitor, partial curve] | – |
| COc1ccc(CCNC(=S)NC(=O)c2cccc(Cl)c2)cc1OC | – | inactive: -9.29% |
| COc1ccc(Nc2oc(-c3ccc(COc4ccccc4C)o3)nc2C#N)cc1 | – | inactive: 1.42% |
| CCOc1ccc(/C=C/[N+](=O)[O-])c2ccccc12 | inconclusive: 1.12 µM [inhibitor, full curve, poor fit] | – |
| CC(=O)N1CCc2c(sc(NC(=O)c3cccc(N4C(=O)CCC4=O)c3)c2C(N)=O)C1 | inconclusive: 22.4 µM [inhibitor, full curve] | – |
| Cc1cc2cc(CNS(=O)(=O)N(C)C)ccc2[nH]1 | – | inactive: 3.96% [at 57.1 µM] |
| CCN(Cc1ccccc1)S(=O)(=O)c1ccc(C(=O)Nc2nnc(-c3ccccc3OC)o2)cc1 | inconclusive: 8.91 µM [inhibitor, single point] | – |
| COc1ccccc1NS(=O)(=O)c1cc(NC(=O)c2ccccc2F)ccc1N1CCOCC1 | – | inactive: 21.9% [at 57.1 µM] |
| Cc1ccc(-c2cc(C(=O)Nc3cccc(S(=O)(=O)N(C)C)c3)c3ccccc3n2)o1 | inconclusive: 50.1 µM [inhibitor, partial curve, poor fit] | – |
| O=C1CN(C(=O)c2ccccc2)C(c2ccccc2)c2cc(F)ccc2N1 (stereo unspecified) | – | inactive: 17.8% |
| CCOC(=O)c1cc(C)sc1/N=C/C1C(=O)CC(C)(C)CC1=O | inconclusive: 89.1 µM [inhibitor, single point] | – |
